The source of these data is PubChem BioAssay AID1745853 (National Center for Advancing Translational Sciences (NCATS), 2022).

Common to all, as to assay: Primary Screen for Target Class Profiling of Small Molecule Inhibitors of Methyltransferases
In experiment [1] the target is Glycine N-methyltransferase (Homo sapiens) (UniProt Q14749). The conditions noted are these: purified enzyme, MTase-Glo SAH luminescence; measured here: GNMT inhibition; at 40 µM; stronger effect = lower value. Put shortly:
(§1)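 Each enzyme was reacted with SAM and its substrate, with compounds tested once at 40 uM; SAH formed was read by MTase-Glo luminescence.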

For experiment [2], the target named is Guanidinoacetate N-methyltransferase (Homo sapiens) (UniProt Q14353). The conditions noted are these: purified enzyme, MTase-Glo SAH luminescence; measured here: GAMT inhibition; at 40 µM; stronger effect = lower value. Put shortly: as §1
The target of experiment [3] is Histamine N-methyltransferase (Homo sapiens) (UniProt P50135). The following applies: purified enzyme, MTase-Glo SAH luminescence; measured here: HNMT inhibition; at 40 µM; stronger effect = lower value. In short, it runs like this: as §1
The target of experiment [4] is Nicotinamide N-methyltransferase (Homo sapiens) (UniProt P40261). The following applies: purified enzyme, MTase-Glo SAH luminescence; measured here: NNMT inhibition; at 40 µM; stronger effect = lower value. Put shortly: as §1
Experiment [5] concerns the target Phenylethanolamine N-methyltransferase (Homo sapiens) (UniProt P11086). The following applies: purified enzyme, MTase-Glo SAH luminescence; measured here: PNMT inhibition; at 40 µM; stronger effect = lower value. Put shortly: as §1

This is one part of the list. The main result of the screen is listed elsewhere. These columns were measured beside it and carry no call.
On the % scale 0 is the no-effect control and ±100 the full control effect.

For `CCC(C)NC(=O)N1CC(c2nc(CCOCC3CCOCC3)no2)C1` (stereo unspecified), the activity change, negative = inhibition was -4.77% in experiment [1]; -8.49% in experiment [2]; -3.34% in experiment [3]; -16.8% in experiment [4]; -15.2% in experiment [5].
The like results for `C=C1C(=O)O[C@@H]2[C@H]3O[C@]3(C)CCC=C(C)CC[C@@H]12` were, in that order, -12.9%, 6.14%, 1.21%, -5.06% and 4.13%.
The like results for `CN(C)C[C@H]1C[C@@H](CO)CN(C(=O)c2csc(Cc3ccccc3)n2)C1` were, in that order, -6.31%, -7.46%, -5.46%, -9.04% and -5.17%.
The like results for `COc1ccc(OC)c(CCNC(=O)CCc2nnc3n(CCCOC(C)C)c(=O)c4ccccc4n23)c1` were, in that order, -5.74%, 0.717%, -5.77%, 3.48% and 2.96%.
In the case of `COc1cccc(CC(=O)NCc2ccc(Cl)s2)c1`, the activity change, negative = inhibition is -2.9% in experiment [1]; -4.43% in experiment [2]; -1.04% in experiment [3]; -10.5% in experiment [4]; -4.94% in experiment [5].
The corresponding values for `COc1ccc(Br)cc1[C@@H]1Nc2ccc(Cl)cc2[C@@H]2C=CC[C@@H]21` are -8.41%, 0%, -10.3%, -2.14% and -6.22%.
The corresponding values for `O=c1c2ccccc2n2c(-c3cc(Cl)ccc3O)nnc2n1Cc1ccccc1` are -7.93%, 2.23%, -2.14%, -4.1% and -14.9%.
For the compound `CN(Cc1cccc(N2CCN(Cc3c(Cl)ccc(Cl)c3Cl)CC2)c1)[S+](C)(=O)[O-]`, the activity change, negative = inhibition in experiment [1] is -3.95%; in experiment [2], -0.767%; in experiment [3] it was 3.27%; in experiment [4], -0.784%; in experiment [5] it was -4.91%.
The like results for `Cn1c(=O)n(C)c2cc(S(=O)(=O)N(Cc3ccccc3)C(=O)c3ccncc3)ccc21` were, in that order, 4.78%, 0.148%, 10.1%, 7.81% and 3.64%.
The like results for `CCNc1nccc(N2CCC(CC(=O)N3CCN(c4ccccc4F)CC3)CC2)n1` were, in that order, -7.41%, -0.469%, -65.8%, -19.2% and -7.07%.
Regarding `CCCN1C(=O)c2cc(C(=O)NCCc3ccc(SC)cc3)nn2CC1(C)C(=O)NC1CCCC1` (stereo unspecified), the activity change, negative = inhibition is 2.81% in experiment [1]; 0% in experiment [2]; -28% in experiment [3]; 1.28% in experiment [4]; 3.48% in experiment [5].
For `CCC(C)n1ncn(-c2ccc(N3CCN(c4ccc(OCC5COC(Cn6cncn6)(c6ccc(Cl)cc6Cl)O5)cc4)CC3)cc2)c1=O` (stereo unspecified), the activity change, negative = inhibition in experiment [2] was -9.15%; in experiment [4], -18.1%; in experiment [5] it was -5.91%.
Turning to `C[C@@H]1O[C@@H](O[C@H]2[C@H](OC(=O)[C@]34CCC(C)(C)C[C@H]3C3=CCC5[C@@]6(C)C[C@@H](O)[C@@H](O[C@@H]7O[C@H](CO)[C@@H](O)[C@H](O)[C@H]7O)[C@@](C)(CO)C6[C@H](O)C[C@@]5(C)[C@]3(C)CC4)OC[C@H](O)[C@@H]2O)[C@H](O)[C@H](O[C@@H]2OC[C@](O)(CO)[C@H]2O)[C@H]1O[C@@H]1OC[C@@H](O)[C@H](O[C@H]2O[C@H](C)[C@@H](O)[C@H](O)[C@@H]2O)[C@H]1O` (stereo partly specified), the activity change, negative = inhibition is 3.13% in experiment [1]; 2.26% in experiment [2]; 10.5% in experiment [3]; -8.9% in experiment [4]; 10.2% in experiment [5].
In the case of `CCNC(=O)CN1CCC(=O)N(Cc2ccc(F)cc2)C(C(C)C)C1` (stereo unspecified), the activity change, negative = inhibition in experiment [1] was -2.58%; in experiment [2], -1.93%; in experiment [3], -0.732%; in experiment [4], -10%; in experiment [5] it was 8.64%.
The like results for `CCCCN1C(=O)c2cc(C(=O)NCCCc3ccccc3)nn2CC1(C)C(=O)NC1CCCC1` (stereo unspecified) were, in that order, 2.9%, 0%, -0.826%, 3.69% and 3.63%.
`CCc1cc2c(cc3n2CC(C)(C(=O)NC2CCC(C)CC2)N(Cc2ccco2)C3=O)s1` (stereo unspecified): the activity change, negative = inhibition in experiment [1] was -0.414%; in experiment [2] it was 8.15%; in experiment [3], 1.82%; in experiment [4], -9.66%; in experiment [5] it was -1.61%.
The like results for `O=C(c1cccn2cncc12)N1CCOCC1` were, in that order, -3.37%, 2.86%, 0.856%, 0.92% and -2%.
The corresponding values for `CCCn1c(=O)c2ccc(C(=O)NC(C)C)cc2n2c(=O)n(Cc3ccc(C)cc3)nc12` are 7.1%, 1.62%, 10.8%, 0.225% and 8.37%.
The corresponding values for `CCC1Oc2ccc(Cl)cc2N(CC(=O)Nc2ccc3c(c2)C(=O)N(C)C2=NCCN23)C1=O` (stereo unspecified) are -7.49%, -3.43%, -6.68%, -5.12% and -4.63%.
`CCOC(=O)c1cc2n(n1)CC(C)(C(=O)NCc1ccccc1)N(c1ccc(C)c(Cl)c1)C2=O` (stereo unspecified): the activity change, negative = inhibition was 0.51% in experiment [1]; 4.5% in experiment [2]; 0.504% in experiment [3]; -2.33% in experiment [4]; -0.196% in experiment [5].
Turning to `CN(C)CCNC(=O)c1cccn2c(=O)c3cc4ccccc4cc3nc12`, the activity change, negative = inhibition is -0.836% in experiment [2], -5.58% in experiment [4] and -66.9% in experiment [5].
As for `O=C(Nc1nn(Cc2ccccc2)c2cccc(N3CCOCC3)c12)C1CCC1`, the activity change, negative = inhibition in experiment [1] is -3.65%; in experiment [2], 0.069%; in experiment [3] it was -0.101%; in experiment [4], -6.22%; in experiment [5], -3.6%.
As for `CCc1nc2c(c(-c3ccc(Cl)cc3)n1)CCN(Cc1ccnn1C)CC2`, the activity change, negative = inhibition was -4.83% in experiment [1]; -6.52% in experiment [2]; -3.63% in experiment [3]; -12.4% in experiment [4]; -8.4% in experiment [5].
The like results for `Cn1c(=O)c2ccc(C(=O)NC3CCCC3)cc2n2c(SCC(=O)Nc3ccccc3F)nnc12` were, in that order, -7.72%, 1.11%, 3.8%, -3.57% and 3.5%.
The like results for `COc1cccc(N2CCN(C(=O)CN(C)S(=O)(=O)c3ccc4[nH]c5c(c4c3)CCCC5)CC2)c1` were, in that order, 0.567%, 4.27%, 2.25%, -1.15% and 2.48%.
In the case of `CCCCCN(CCC12CC3CC(CC(C3)C1)C2)C(=O)NCCCc1ccncc1`, the activity change, negative = inhibition is 0.742% in experiment [1]; -10.6% in experiment [2]; 7.16% in experiment [3]; -39.5% in experiment [4]; -6.45% in experiment [5].
The corresponding values for `O=C1c2cc3sccc3n2CC(C(=O)NC2CCCCCC2)(c2ccccc2)N1CCc1ccc(Cl)cc1` (stereo unspecified) are 2.82%, 4.21%, 1.5%, 3.06% and -1.37%.
The like results for `CCC1CCCCN1CCCNC(=O)CCn1ccc2cc(S(=O)(=O)N3CCCCC3)ccc21` (stereo unspecified) were, in that order, -0.538%, 4.28%, -13.7%, -0.155% and 2.14%.
